Laboratory results: ChEMBL document CHEMBL4888484, “Replenishing the malaria drug discovery pipeline: Screening and hit evaluation of the MMV Hit Generation Library 1 (HGL1) against asexual blood stage Plasmodium falciparum ,using a nano luciferase reporter read-out” (2022)
In all, about 150,000 compounds went through this assay and about 540 (0.36%) showed an effect of 50% or more. Some of the results follow.

These compounds were tested on Plasmodium falciparum (assay: Primary screen in NF54 nanoGlo assay, in single point, at 2uM, 72h; a lower Z score goes with more inhibition). Conditions: timepoint 72 hour.
Type: functional, Erythrocyte

SMILES	% Inhibition	Z score
Cc1cc2c(cc1C)O[C@H](C(=O)NCC1(S(C)(=O)=O)CCCC1)C2	-12%	2.22
Cc1cnc(C(=O)N[C@@H]2CCC[C@@H]2C(=O)NCc2ccc(C(F)(F)F)cc2)cn1	-16%	2
CCCn1nc2n(c1=O)CCN(Cc1sccc1C)C2	-17%	3
CCOc1ccc2c(c1)NC(=O)C[C@H]2c1ccc2onc(C)c2c1	-15%	1.42
O=C(COc1ccccc1)N1CCC(N2C(=O)[C@@H]3CCCN3C2=O)C1 (some centres not stated)	6%	-0.89
Cn1cc(-c2cc3n(n2)CCC(=O)N3CC(=O)NCc2ccccc2Cl)c2ccccc21	-1%	0.22
CN(Cc1ncc[nH]1)C[C@H]1CCCCN1C(=O)OC(C)(C)C	-5%	0.57
N#CCN1CCN(C(=O)c2ccc3[nH]ccc3c2)CC1	-3%	0.6
O=C(Cn1ncc(=O)c2ccccc21)N1CCC[C@H]1c1ccc2c(c1)OCCCO2	3%	-0.49
CCOc1ccc2nc(N(C[C@H]3CCCO3)C(=O)c3c(-c4ccccc4Cl)noc3C)sc2c1	4%	-0.62
c1ccc(-c2ncn(CCc3c[nH]cn3)c2-c2ccncc2)cc1	-7%	0.8
CCCn1ncc(C(=O)NCCS(=O)(=O)CC(C)C)c1C	1%	-0.1
COc1ccc(C(=O)n2nc(-c3ccccc3)c3ccccc32)cc1	-11%	1.46
CCN(CCN(C)C)C(=O)c1csc2nc(C)cn12	-7%	1.08
Cc1ccc2nc(NC(=O)CCc3nc4ccccc4c(=O)[nH]3)sc2c1	-3%	0.39
COc1ccc(CCNC(=O)N(Cc2cccn2C)C2CC2)cc1	9%	-1.75
CC(C)c1cc(CN(C)C(=O)c2cc(C(F)(F)F)n(C)n2)on1	3%	-0.73
COc1cccc(CNC(=O)[C@@H]2CCn3c(C(=O)c4ccccc4)ccc32)c1	-6%	0.87
CCCOCC(=O)N1C[C@@H](C)[C@@](C)(O)C1	-1%	0.15
CCc1nn(C)c(Cl)c1CN1CCC(CNC(=O)c2cccs2)CC1	1%	-0.13
CCCCCC(=O)N(Cc1ccccc1)c1c(N)n(CCOC)c(=O)[nH]c1=O	-12%	1.37
COc1ccc(Cn2nnc3cc(C(=O)NC4CCCCC4)ccc32)cc1	-12%	1.22

SMILES	% Inhibition	Z score
NC(=O)NC(=O)CNc1cccc(F)c1F	-1%	0.19
Cc1ccccc1CNC[C@H]1Cn2c(-c3ccccc3)cnc2CO1	-4%	0.58
Cc1cc(C)c(S(=O)(=O)N(C)C(=O)C2CCC(C)O2)c(C)c1 (configuration not stated)	-4%	0.71
CC(C)c1cc(C(=O)N2CCCNC(=O)[C@@H]2C)no1	-4%	0.39
CCc1nc(-c2ccc3c(c2)CCN3C(=O)COc2cccc(C)c2)no1	14%	-1.69
COc1cccc(-c2nc3ccc(-c4cccc(C)c4)cn3c2CCC(=O)Nc2ccc(F)cc2)c1	-7%	1.3
CC(C)c1csc(CCNC(=O)N2CC[C@H](N3CCCCC3)C2)n1	-13%	1.12
COCc1ccnc(NC(=O)Nc2cnn(CC3CC3)c2)n1	-1%	0.11
O=C(Nc1ccc(Br)cc1)N1CCC(c2nnc3n2CCCC3)CC1	-9%	1.6
CN1CCN(C(=O)C23CCC(C)(C(=O)C2=O)C3(C)C)CC1 (configuration not stated)	-8%	1.02
CCN(CC)C(=O)C(=O)Nc1c(Cl)cccc1Cl	1%	-0.2
COc1ccc(S(=O)(=O)c2cnc(N3CCN(C(=O)c4ccco4)CC3)nc2N)cc1	0%	-0.04
COCC(=O)N1CCCC[C@@]1(C)c1noc(-c2ccc(F)cc2)n1	30%	-3.39
Cc1cc(C)n(C[C@H](C)Nc2ccccn2)n1	-6%	0.84
CCN(CC)CCN(C(=O)c1ccc2c(c1)CCCC2)c1nc2cc3c(cc2s1)OCCO3	19%	-2.37
COCCNC(=NC1CCCCC1)NCC1(c2ccccc2)CC1	9%	-1.11
CC(C)C[C@H]1CN(C(=O)c2cccn2C2CC2)CCO1	-6%	1.02
O=C1c2cccc3cccc(c23)C(=O)N1c1ccncc1	-14%	1.8
Cc1nc(NC(=O)Cc2cccc3ccccc23)oc1C	-8%	0.95
CCCCNC(=O)Cc1noc(CCc2cccc(O)c2)n1	-3%	0.41
COC(=O)c1c(C)[nH]c(-c2nc(Cc3csc(C)n3)sc2C)c1C	-2%	0.29
Cc1ccc(-c2noc(CCN3CCN(C(C)C)CC3)n2)cc1	-2%	0.3

SMILES	% Inhibition	Z score
CC(Cc1ccc(Cl)cc1Cl)NC(=O)C1CCN(C)C(=O)C1 (configuration not stated)	-8%	1.42
CC(C)(CC1CCCCCC1)NC(=O)c1cncnc1	-6%	0.82
Cc1cc(NC(=O)N2CC3CCCCC32c2ccccc2)c[nH]c1=O (configuration not stated)	3%	-0.36
Cc1ccc(Cn2c(N3CCOCC3)nc3cc(C(=O)NCCCOC(C)C)ccc3c2=O)cc1	-12%	2.34
Cc1cccc(C)c1CN(C)CC(C)(CO)CO	2%	-0.31
CC(=O)NCCC(=O)Nc1c(C)cc(C)cc1C	-9%	1.79
COc1ccc(NC(=O)Cn2c3cc(=O)n(CCN4CCOCC4)c(C)c3c(=O)n2-c2nc3ccccc3s2)cc1	33%	-3.71
CC(C)c1cc(C(=O)NC2Cc3ccccc3C2)n[nH]1	28%	-3.83
Cc1ccc(NC(=O)Cn2nc(N3CCC[C@H](C)C3)c3ccccc3c2=O)cc1	-6%	0.95
CCc1nncn1[C@H]1CCN(S(=O)(=O)c2cc(F)ccc2OC)C1	-11%	1.85
O=C(N[C@H]1CCOC[C@H]1C1CCOCC1)c1c[nH]c(=O)c(Cl)c1	1%	-0.13
CCCc1nnsc1C(=O)N1CC(Cn2cncn2)C1	-17%	2.18
CO[C@@H](CNc1cc(C#N)ccn1)C(C)(C)C	-18%	1.67
Cc1nccc(O[C@H]2CCCN(C(=O)c3cc(=O)[nH]c(=O)[nH]3)C2)n1	11%	-1.56
CCCCc1cc(NS(=O)(=O)c2cc(C)oc2C)[nH]n1	0%	-0.01
O=C(NCC1CC1)c1ccc2c(c1)C(=O)N(C[C@H]1CCCO1)C2=O	-6%	1.07
CN(C)c1ccc(CN2Cc3nc[nH]c3C[C@H]2c2nc(-c3ccc(Cl)cc3)no2)cc1	-7%	0.94
Nc1ncc(Cl)cc1S(=O)(=O)N1CCNC(=O)CC1	-10%	1.17
O=S(=O)(NCc1nnc2c(C(F)(F)F)cccn12)C1CC1	18%	-2.23
CC(C)c1nc(CN2CC[C@@]3(C2)NC(=O)N(C(C)C)C3=O)cs1	7%	-0.75
Fc1cnc(-c2ccc(C3CCCC3)cc2)nc1N1CCOCC1	-10%	1.93
CCCN(CC(=O)O)C(=O)c1cc(C)cc(F)c1	-11%	1.29

SMILES	% Inhibition	Z score
O=C(NCCOc1ccccc1F)c1cc(-c2ccc(O)cc2)n[nH]1	3%	-0.59
O=C(c1cccs1)N(c1ccc(Cl)c(Cl)c1)c1nc2ccccc2s1	0%	0.05
O=c1c(NCCN2CCCC2)nc2ccncc2n1Cc1ccccc1	-8%	0.75
CN(CC1CCC1)C(=O)NC[C@@H](c1ccco1)N1CCCC1	-3%	0.64
CC(C)CN(CC(C)C)S(=O)(=O)c1ccc(Br)cc1	-10%	1.28
C[C@H](NC(=O)N1CCOCC1)c1nc(-c2ccccn2)no1	-10%	1.49
Cc1ccccc1C(C)(C)CNC(=O)CCS(=O)(=O)N(C)C	-14%	1.75
CCCN(CC(=O)N1CCn2cccc2[C@H]1c1ccccc1F)C(=O)c1ccc(C)cc1	-2%	0.17
CC(C)Oc1cc(-c2cccc(C(=O)NCc3cnn(C)c3)c2)nc(N)n1	-8%	0.78
CC(NC(C)C1CCCO1)C(=O)N(C)C(C)C (configuration not stated)	-13%	2.08
Cc1cccc(C(=O)N2CCc3[nH]c4ccc(F)cc4c3C2)n1	-12%	1.35
Cc1onc(-c2ccccc2)c1-c1n[nH]c2c1CN(S(C)(=O)=O)CC2	-3%	0.33
COc1cccc(-c2nc(NCc3ccncc3)ncc2C(=O)O)c1	-6%	0.73
CC(c1ccc(Cl)cc1)C(C)N(C)S(=O)(=O)N(C)C (configuration not stated)	-2%	0.18
CCc1nsc(NCc2cc3n(n2)CCC3)n1	29%	-3.25
CCCc1ncc(CNc2cccc(C(=O)O)n2)o1	-11%	1.49
CNC(=O)c1cc(S(=O)(=O)N2CC=CC2)cn1C	-4%	0.78
Cc1nccn1C1CN(C(=O)CC2CCCC2)C1	-9%	1.15
CS(=O)(=O)c1cccc(C(=O)N2CCC[C@H]2c2nnc3ccccn23)c1	-9%	1.23
Cc1c(COc2ccc(N)cc2F)cnn1C	32%	-3.67
